{
  "source": "PubChem BioAssay AID504333",
  "about": "(National Center for Advancing Translational Sciences (NCATS), 2011)",
  "note": "Where “and” joins values, the source holds several entries; their conditions need not be identical. Identical values can stand only once. The whole screen tested about 360,000 compounds, of which about 16,000 (4.4%) were called active. The inconclusive results got no clear call from the source; some entries with a clear call stand among them for comparison. The call rests on the fitted dose curve; in most records, active means well fitted inhibition curve with a large enough effect; inconclusive means small, poorly fitted or top-dose-only effect; inactive means no such curve, though single readings can be large or run the other way. Potencies of inconclusive entries are doubtful fits and often do not repeat. Potency means the concentration at half of the fitted maximal effect; tags describe the fitted curve by direction and shape.",
  "data": [
    {"molecular_target": "Bromodomain adjacent to zinc finger domain protein 2B (Homo sapiens) (UniProt Q9UIF8)", "sequence (Q9UIF8 whole entry, looked up, the tested form may be a part)": "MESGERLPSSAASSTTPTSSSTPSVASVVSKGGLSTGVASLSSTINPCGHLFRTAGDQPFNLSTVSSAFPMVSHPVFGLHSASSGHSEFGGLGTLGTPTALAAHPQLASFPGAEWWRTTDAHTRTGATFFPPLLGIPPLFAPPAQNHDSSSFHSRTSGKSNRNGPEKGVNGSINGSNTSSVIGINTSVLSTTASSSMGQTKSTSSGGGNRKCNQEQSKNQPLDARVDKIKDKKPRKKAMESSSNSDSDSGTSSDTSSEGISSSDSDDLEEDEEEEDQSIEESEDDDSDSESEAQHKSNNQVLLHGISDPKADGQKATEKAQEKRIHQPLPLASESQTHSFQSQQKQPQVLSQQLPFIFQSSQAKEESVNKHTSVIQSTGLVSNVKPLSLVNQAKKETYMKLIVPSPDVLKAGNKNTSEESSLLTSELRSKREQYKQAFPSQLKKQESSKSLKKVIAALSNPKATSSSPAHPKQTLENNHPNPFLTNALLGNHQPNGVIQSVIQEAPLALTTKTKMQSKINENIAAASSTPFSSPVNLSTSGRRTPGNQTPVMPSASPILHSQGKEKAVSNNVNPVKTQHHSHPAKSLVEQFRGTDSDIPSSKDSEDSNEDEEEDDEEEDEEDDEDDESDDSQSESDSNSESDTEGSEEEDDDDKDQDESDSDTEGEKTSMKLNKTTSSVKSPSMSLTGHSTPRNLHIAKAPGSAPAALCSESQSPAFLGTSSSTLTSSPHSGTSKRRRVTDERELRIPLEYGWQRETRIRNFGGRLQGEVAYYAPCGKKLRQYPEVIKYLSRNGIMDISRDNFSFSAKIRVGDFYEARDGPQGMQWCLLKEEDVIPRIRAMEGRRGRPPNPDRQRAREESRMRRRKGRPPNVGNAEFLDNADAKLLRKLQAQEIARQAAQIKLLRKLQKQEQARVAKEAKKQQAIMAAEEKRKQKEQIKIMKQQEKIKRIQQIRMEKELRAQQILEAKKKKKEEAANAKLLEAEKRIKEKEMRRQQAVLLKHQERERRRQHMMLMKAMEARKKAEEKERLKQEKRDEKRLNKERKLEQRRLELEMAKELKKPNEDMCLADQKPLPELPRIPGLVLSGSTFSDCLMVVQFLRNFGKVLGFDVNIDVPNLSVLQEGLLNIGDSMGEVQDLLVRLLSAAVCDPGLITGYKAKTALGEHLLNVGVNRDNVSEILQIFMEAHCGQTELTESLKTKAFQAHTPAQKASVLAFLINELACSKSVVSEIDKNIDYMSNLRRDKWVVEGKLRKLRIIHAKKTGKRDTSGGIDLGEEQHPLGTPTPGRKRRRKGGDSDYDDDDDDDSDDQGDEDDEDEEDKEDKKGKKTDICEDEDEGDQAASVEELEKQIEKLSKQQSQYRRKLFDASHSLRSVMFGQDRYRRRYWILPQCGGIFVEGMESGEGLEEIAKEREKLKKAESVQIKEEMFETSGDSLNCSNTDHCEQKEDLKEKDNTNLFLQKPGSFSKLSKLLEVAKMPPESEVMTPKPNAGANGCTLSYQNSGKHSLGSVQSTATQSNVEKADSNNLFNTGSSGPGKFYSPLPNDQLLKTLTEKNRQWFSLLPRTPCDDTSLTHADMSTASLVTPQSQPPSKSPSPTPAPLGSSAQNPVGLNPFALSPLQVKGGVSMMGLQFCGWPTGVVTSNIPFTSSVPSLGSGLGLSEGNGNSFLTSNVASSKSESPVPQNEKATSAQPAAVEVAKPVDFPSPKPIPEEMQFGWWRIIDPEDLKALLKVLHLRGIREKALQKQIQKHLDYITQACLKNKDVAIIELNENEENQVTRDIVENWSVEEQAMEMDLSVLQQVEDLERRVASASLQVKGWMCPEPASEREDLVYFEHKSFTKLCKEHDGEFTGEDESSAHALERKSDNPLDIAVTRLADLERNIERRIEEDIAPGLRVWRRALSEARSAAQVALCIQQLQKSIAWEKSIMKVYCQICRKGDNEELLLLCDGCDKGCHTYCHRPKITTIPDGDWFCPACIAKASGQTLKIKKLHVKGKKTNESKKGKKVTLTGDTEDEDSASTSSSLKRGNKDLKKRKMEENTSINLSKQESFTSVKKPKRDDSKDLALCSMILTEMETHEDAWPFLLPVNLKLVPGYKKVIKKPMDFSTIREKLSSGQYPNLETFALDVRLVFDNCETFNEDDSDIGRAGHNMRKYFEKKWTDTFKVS", "assay": "qHTS Assay for Inhibitors of BAZ2B; further: nearly all actives have a fitted effect of over 60% in size", "settings": "AlphaScreen BAZ2B-H3K14Ac peptide displacement; series mostly up to 114 µM", "how_it_was_run": "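Compounds, titrated to a top concentration of 110 uM, were incubated 30 min at room temperature with preformed BAZ2B/acetyl-K14 H3 peptide complex (50 nM each). Proximity signal was measured by AlphaScreen after 20 min with beads.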", "values": [
      {"smiles": "Cc1cc(C)c2cc3c(N)c(C(=O)N4CCOCC4)sc3nc2c1", "Potency": "inactive"},
      {"smiles": "COc1cc(SC#N)ccc1N=Cc1c(C)[nH]n(-c2ccc(Cl)cc2)c1=O", "Potency": "inactive"},
      {"smiles": "CCc1ccc(C(=O)c2cn(CC(=O)Nc3ccc(F)cc3)c3cc4c(cc3c2=O)OCO4)cc1", "Potency": "inconclusive: 56.2 µM [inhibitor, partial curve]"},
      {"smiles": "Cc1ncoc1C(=O)Nc1ncc([N+](=O)[O-])s1", "Potency": "inconclusive: 79.4 µM [inhibitor, single point]"},
      {"smiles": "CC(=O)NNC(=O)c1ccncc1", "Potency": "inactive"},
      {"smiles": "Cc1cc(OCC(=O)Nc2sc3c(c2C(N)=O)CCCC3)ccc1C(C)C", "Potency": "inactive"},
      {"smiles": "C[n+]1ccc(C(=O)Nc2ccccc2Cl)cc1", "Potency": "inconclusive: 89.1 µM [inhibitor, single point]"},
      {"smiles": "CCN(CC)CCCNC(=O)c1oc2c(c1C)-c1nn(Cc3ccc(Cl)cc3)cc1CC2", "Potency": "inconclusive: 35.5 µM [inhibitor, partial curve]"},
      {"smiles": "Cn1cccc1-c1nc2ccccc2n1C", "Potency": "inconclusive: 39.8 µM [inhibitor, partial curve]"},
      {"smiles": "CCOc1ccccc1C1c2[nH]c3ccccc3c2C[C@H]2C(=O)N(C3CCN(Cc4ccccc4)CC3)CC(=O)N12", "note": "(some centres undefined)", "Potency": "inconclusive: 22.4 µM [inhibitor, full curve, poor fit]"},
      {"smiles": "COc1cccc(CN2CCN(C(=O)CC(C)C)CC2)c1", "Potency": "active: 56.2 µM"},
      {"smiles": "O=C(CCNS(=O)(=O)c1ccc(Cl)cc1)N1CCN(Cc2ccccc2)CC1", "Potency": "inconclusive: 100 µM [inhibitor, partial curve]"},
      {"smiles": "CC(C)C(=O)Nc1nnc(CCN2CCCCC2)s1", "Potency": "inactive"},
      {"smiles": "Cc1ccc(NNC(=S)Nc2ccc(C(C)C)cc2)c(C)c1", "Potency": "active: 35.5 µM"},
      {"smiles": "Nc1nc(=S)c2ncn(C3OC(CO)C(O)C3O)c2[nH]1", "note": "(centres undefined)", "Potency": "active: 44.7 µM"},
      {"smiles": "Cc1nnc(SCC2=C(C(=O)O)N3C(=O)C(NC(=O)COc4ccccc4)C3SC2)s1", "note": "(centres undefined)", "Potency": "inconclusive: 89.1 µM [inhibitor, single point]"},
      {"smiles": "COc1ccc(-c2nc(SCC(=O)NCCCc3ccccc3)n[nH]2)cc1", "Potency": "inactive"},
      {"smiles": "CCCc1nc2oc3ccccc3c(=O)c2c(=O)n1-c1ccc(C)cc1", "Potency": "inconclusive: 79.4 µM [inhibitor, partial curve]"},
      {"smiles": "COc1cc2cc(C(=O)O)n(C)c2c(OC)c1OC", "Potency": "inconclusive: 89.1 µM [inhibitor, single point]"},
      {"smiles": "Cc1ccccc1NC(=O)Cn1c(CCC(=O)O)ccc1-c1cccs1", "Potency": "inconclusive: 79.4 µM [inhibitor, single point]"},
      {"smiles": "COCCNC(=O)/C(C#N)=C/c1ccc(OCc2ccccc2)cc1", "Potency": "inconclusive: 44.7 µM [inhibitor, partial curve]"},
      {"smiles": "CC(C)(C)c1ccc(C(=O)Nc2ccccc2C(=O)OCc2cc(=O)n3ccsc3n2)cc1", "Potency": "inactive"},
      {"smiles": "COc1ccc(CNC(=O)NCCc2c[nH]c3ccccc23)cc1", "Potency": "inconclusive: 79.4 µM [inhibitor, single point]"},
      {"smiles": "O=C(NC(=S)NCc1ccc2c(c1)OCO2)c1ccccc1", "Potency": "inconclusive: 79.4 µM [inhibitor, single point]"},
      {"smiles": "COCCN(Cc1cc2cc3c(cc2nc1Cl)OCO3)C(=O)c1ccc(C)cc1", "Potency": "active: 10 µM"},
      {"smiles": "N=c1c(C(=O)NCCN2CCOCC2)cc2c(=O)n3ccccc3nc2n1CCc1ccccc1", "Potency": "inactive"},
      {"smiles": "Nc1ccc2cn[nH]c2c1", "Potency": "inconclusive: 56.2 µM [inhibitor, partial curve, poor fit]"},
      {"smiles": "CCc1sc(NC(=O)C(C)C)nc1-c1ccccc1", "Potency": "inconclusive: 89.1 µM [inhibitor, single point]"},
      {"smiles": "O=C(/C=C/c1ccc(Cl)c(Cl)c1)NCCCn1ccnc1", "Potency": "inconclusive: 44.7 µM [inhibitor, partial curve]"},
      {"smiles": "COc1ccc(/C=N/NC(=O)CSCC(=O)Nc2ccccc2)cc1", "Potency": "inactive"},
      {"smiles": "NNc1nnc2c3cc(F)ccc3n(CCc3ccccc3)c2n1", "Potency": "inconclusive: 79.4 µM [inhibitor, single point]"},
      {"smiles": "COc1ccc(/C=N/NC(=O)c2nn(C)cc2Br)cc1CSCc1ccco1", "Potency": "inconclusive: 10 µM [inhibitor, full curve]"},
      {"smiles": "OC(COc1cccc2ccccc12)CN1CCN(c2ccc(Cl)cc2)CC1", "note": "(centres undefined)", "Potency": "inconclusive: 28.2 µM [inhibitor, partial curve] and inconclusive: 79.4 µM [inhibitor, single point]"},
      {"smiles": "N#CCCN1CCN(S(=O)(=O)c2cc(Cl)ccc2Cl)CC1", "Potency": "inactive"},
      {"smiles": "NC(=O)c1ccccc1NC(=S)NC(=O)CCc1ccccc1", "Potency": "inactive"},
      {"smiles": "CCNC(=S)N(CCc1c(C)[nH]c2ccc(C)cc12)Cc1ccco1", "Potency": "inconclusive: 50.1 µM [inhibitor, partial curve]"},
      {"smiles": "Cc1cc(OCC(=O)NNC(=O)c2cccnc2)cc(C)c1Cl", "Potency": "inconclusive: 89.1 µM [inhibitor, single point]"},
      {"smiles": "Fc1ccc(-n2cc(-c3ccccc3)c3c(NC4CCCCC4)ncnc32)cc1", "Potency": "inconclusive: 28.2 µM [inhibitor, single point]"},
      {"smiles": "Nc1nc(Nc2cccc(Cl)c2)nc(NCc2ccco2)c1[N+](=O)[O-]", "Potency": "inconclusive: 44.7 µM [inhibitor, partial curve]"},
      {"smiles": "COc1cccc(Nc2ccccc2C(=O)O)c1", "Potency": "inconclusive: 56.2 µM [inhibitor, partial curve]"},
      {"smiles": "COc1ccccc1NS(=O)(=O)c1cccc(NC(=O)c2sc3ccccc3c2Cl)c1", "Potency": "inconclusive: 89.1 µM [inhibitor, partial curve]"},
      {"smiles": "NC(=O)c1nn(CC(=O)Nc2cccc(S(=O)(=O)N3CCCC3)c2)c(=O)c2ccccc12", "Potency": "inactive"},
      {"smiles": "COc1ccc(NC(=O)c2cc3c(s2)-c2c(C)cccc2OC3)c(OC)c1", "Potency": "inactive"},
      {"smiles": "O=C(CCN1C(=O)/C(=C/c2cccs2)SC1=S)N1CCCCC1", "Potency": "active: 8.91 µM"},
      {"smiles": "CCC(CC)c1nnc(NC(=O)CCc2ccc(OC)cc2)s1", "Potency": "inconclusive: 89.1 µM [inhibitor, single point]"},
      {"smiles": "O=C(NC(=S)NCCCN1CCOCC1)c1ccc(Br)cc1", "Potency": "inactive"},
      {"smiles": "CCCNc1nc(NCC)nc(OC)n1", "Potency": "inactive"},
      {"smiles": "COc1cccc(/C=N/NC(=O)c2cc3c(OC)c(OC)ccc3[nH]2)c1OC", "Potency": "inconclusive: 44.7 µM [inhibitor, partial curve]"},
      {"smiles": "COC(=O)N/N=C/c1ccc(OC(=O)/C=C/c2ccco2)cc1", "Potency": "active: 70.8 µM"},
      {"smiles": "Cc1ccc(NCC(=O)N/N=C/c2ccc(C(=O)O)cc2)cc1", "Potency": "inactive"},
      {"smiles": "Cc1ccc(N/C=C(\\C#N)c2ccc(OCCCF)cc2)cc1", "Potency": "inconclusive: 56.2 µM [inhibitor, partial curve]"},
      {"smiles": "CCOc1ccc(-c2cc(OC(=O)c3ccc(F)cc3)c3c(C)oc(C)c3c(=O)c2)cc1", "Potency": "inconclusive: 28.2 µM [inhibitor, partial curve]"},
      {"smiles": "O=c1cc(CN2CCN(c3ccccc3)CC2)nc2scc(-c3ccccc3)n12", "Potency": "inconclusive: 35.5 µM [inhibitor, partial curve]"},
      {"smiles": "O=C(O)c1cccc2c1C(=O)c1ccc(Cl)cc1S2(=O)=O", "Potency": "inconclusive: 89.1 µM [inhibitor, single point]"},
      {"smiles": "NC(=S)N/N=C1\\CC(c2ccc3c(c2)OCCCO3)Oc2ccc(F)cc21", "note": "(centres undefined)", "Potency": "active: 25.1 µM"},
      {"smiles": "Cn1c(=O)c2c(nc(NNC(=O)C(F)(F)F)n2C)n(C)c1=O", "Potency": "inconclusive: 79.4 µM [inhibitor, partial curve]"},
      {"smiles": "O=C1c2ccccc2C(=O)N1CCSc1n[nH]c(=S)s1", "Potency": "inconclusive: 89.1 µM [inhibitor, single point]"},
      {"smiles": "Cc1ccc(-n2cc(CN3CCN(c4ccccn4)CC3)c(-c3ccc(F)cc3)n2)cc1", "Potency": "inconclusive: 20 µM [inhibitor, full curve]"},
      {"smiles": "CCCc1nn2c(=O)cc(COc3cccc(NC(=O)c4ccco4)c3)nc2s1", "Potency": "inactive"},
      {"smiles": "O=[N+]([O-])c1ccccc1SNc1ccccn1", "Potency": "inconclusive: 79.4 µM [inhibitor, single point]"},
      {"smiles": "Cc1ccccc1NCc1ccc([N+](=O)[O-])s1", "Potency": "active: 50.1 µM"},
      {"smiles": "CC1CC(C)CN(S(=O)(=O)c2ccc(C(=O)Nc3nnc(-c4cccs4)o3)cc2)C1", "note": "(centres undefined)", "Potency": "inconclusive: 89.1 µM [inhibitor, single point]"},
      {"smiles": "CCC1CCCCN1C(=O)c1ccc2c(c1)N(Cc1cccc(Cl)c1)C(=O)c1ccccc1S2(=O)=O", "note": "(centres undefined)", "Potency": "inactive"},
      {"smiles": "COc1ccc(CN2CCC(N3CC(C)OC(C)C3)CC2)c(OC)c1OC", "note": "(centres undefined)", "Potency": "inconclusive: 39.8 µM [inhibitor, single point]"},
      {"smiles": "Cn1c(=O)n(-c2ccc(F)c(Cl)c2)c(=O)c2sc3ccccc3c21", "Potency": "inconclusive: 89.1 µM [inhibitor, single point]"},
      {"smiles": "CCC(NC(=O)CCc1c(C)c2cc3c(C)c(C)oc3cc2oc1=O)C(=O)N[C@@H](Cc1ccccc1)C(=O)O", "note": "(some centres undefined)", "Potency": "active: 50.1 µM"},
      {"smiles": "CCOC(=O)c1c(Nc2ccc(C)cc2)nnc(-c2ccccc2)c1-c1ccccc1", "Potency": "inconclusive: 8.91 µM [inhibitor, full curve]"},
      {"smiles": "O=C(c1ccc(F)cc1)N1CCCC(c2nc(-c3ccncc3)no2)C1", "note": "(centres undefined)", "Potency": "inactive"},
      {"smiles": "O=C(N=C1SC2CS(=O)(=O)CC2N1c1cc(Cl)ccc1Cl)C1CCCO1", "note": "(centres undefined)", "Potency": "inactive"},
      {"smiles": "c1ccc(-c2ccccn2)nc1", "Potency": "active: 79.4 µM"},
      {"smiles": "CN1CCN(CCC(=O)N2c3ccccc3Sc3ccc(Cl)cc32)CC1", "Potency": "active: 79.4 µM"},
      {"smiles": "CCOC(=O)c1c(OCC)[nH]c2c1cc(O)c1ccccc12", "Potency": "active: 50.1 µM"},
      {"smiles": "O=C(NCC(c1cccnc1)N1CCN(c2ccc(F)cc2)CC1)c1ccc2c(c1)OCO2", "note": "(centres undefined)", "Potency": "inconclusive: 35.5 µM [inhibitor, partial curve]"},
      {"smiles": "COc1ccccc1/C=C/C=N/N1CCN(Cc2ccccc2)CC1", "Potency": "active: 31.6 µM"}
    ]}
  ]
}
